Drawing on the supplement of paper PMC9446081, this text covers relative growth for 38 compounds.

The structures appear in SMILES notation. Hit rate of the full screen: of about 39,000 compounds, about 220 (0.56%) showed activity. The list shows a part of the results.
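Further: static incubation at 37 °C against the wild-type strain, values averaged over two biological replicates.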

The subject of the assay is Escherichia coli K-12 BW25113. The assay is described as follows: relative growth (OD600 normalised to plate interquartile mean) (fraction); higher = less growth inhibition, active = 0.2 or less. Particulars: 50 µM; LB; incubation time: overnight (16-24 h).
For `COc1ccc(NC(=O)N(C)C[C@@H]2OCCCC[C@@H](C)Oc3ccc(NC(=O)Nc4ccc5c(c4)OCO5)cc3C(=O)N([C@H](C)CO)C[C@H]2C)cc1`, the relative growth is inactive: 1.02. Under `CCCC(=O)Nc1ccc2c(c1)C(=O)N(C)C[C@H](OC)[C@@H](C)CN(Cc1ccc(-c3ccccn3)cc1)[C@H](C)CO2` stands inactive: 1.05; under `Cc1noc(C)c1S(=O)(=O)N(C)C[C@H]1Oc2ccc(NC(=O)NC3CCCCC3)cc2CC(=O)N([C@H](C)CO)C[C@H]1C`, inactive: 0.991. Consider `NCC(O)c1ccc(O)c(O)c1.O=C(O)C(O)C(O)C(=O)O` (stereo not drawn), for which the relative growth was inactive: 1.12. As to `COc1ccc(S(=O)(=O)N(C)C[C@@H]2OCCCC[C@@H](C)Oc3ccc(NC(=O)Nc4c(C)noc4C)cc3C(=O)N([C@H](C)CO)C[C@@H]2C)cc1`, the relative growth was inactive: 0.992. Under `C[C@@H]1CCCCO[C@@H](CN(C)C(=O)Nc2ccccc2)[C@H](C)CN([C@H](C)CO)C(=O)c2cc(NC(=O)c3ccncc3)ccc2O1` stands inactive: 0.966.

Turning to `C[C@@H]1CCCCO[C@@H](CN(C)Cc2ccc(C(F)(F)F)cc2)[C@H](C)CN([C@@H](C)CO)C(=O)c2cc(NS(C)(=O)=O)ccc2O1`, the relative growth was inactive: 0.968.

For the compound `CC(C)C[C@H](NP(=O)(O)O[C@H]1O[C@@H](C)[C@@H](O)[C@@H](O)[C@@H]1O)C(=O)N[C@H](Cc1c[nH]c2ccccc12)C(=O)O`, the relative growth was inactive: 0.974. In the case of `C[C@@H]1CCCCO[C@@H](CN(C)Cc2ccc(Cl)c(Cl)c2)[C@H](C)CN([C@@H](C)CO)C(=O)c2cc(NC(=O)C3CCCCC3)ccc2O1`, the relative growth was inactive: 0.996. The value for `CN(C)C1CN(S(=O)(=O)CCC2CC2)C1` was inactive: 0.916; that for `Cc1ccc(S(=O)(=O)N(C)C[C@@H]2Oc3ccc(NS(=O)(=O)c4cccs4)cc3CC(=O)N([C@@H](C)CO)C[C@H]2C)cc1` was inactive: 0.997. Under `COCN(C#N)c1nc(N(C)C)nc(N(C)C)n1` stands inactive: 1; under `COC(=O)C[C@@H]1CC[C@@H]2[C@H](COC[C@H](O)CN2S(=O)(=O)c2ccc(F)cc2)O1`, inactive: 0.995. The value for `Cc1noc(C)c1NC(=O)N(C)C[C@@H]1Oc2ncc(C#CCC(C)C)cc2C(=O)N([C@H](C)CO)C[C@H]1C` was inactive: 1; that for `Cn1ncc2c(N3CCCC3)ncnc21` was inactive: 1.02; that for `Clc1ccc(C2=Nc3cccc4cccc(c34)N2)cc1` was inactive: 0.974. For the compound `COc1ccc([Si](C)(C)[C@@H]2[C@@H](CCO)O[C@]3(C(=O)N(Cc4cccc(N5CCCCC5=O)c4)c4ccccc43)[C@H]2C)cc1`, the relative growth was inactive: 1.05.

As for `C[C@H](CO)N1C[C@H](C)[C@@H](CN(C)S(=O)(=O)c2cn(C)cn2)Oc2c(NC(=O)c3cnccn3)cccc2C1=O`, the relative growth is inactive: 1.01.

Regarding `C[C@H]1CCCCO[C@H](CN(C)C(=O)NC2CCCCC2)[C@@H](C)CN([C@@H](C)CO)C(=O)c2cc(NC(=O)c3ccccc3)ccc2O1`, the relative growth was inactive: 0.966. Turning to `C[C@@H]1CN([C@@H](C)CO)C(=O)Cc2cc(NC(=O)c3ccncc3)ccc2O[C@@H]1CN(C)C(=O)Nc1ccc2c(c1)OCO2`, the relative growth was inactive: 0.95.

For the compound `CS(=O)(=O)Nc1ccc2c(c1)[C@@H]1C[C@@H](CC(=O)NCc3ccc(-c4ccccc4)cc3)O[C@H](CO)[C@@H]1O2`, the relative growth was inactive: 0.989. As for `CCC[C@@H](O)C#Cc1cnc2c(c1)C(=O)N([C@H](C)CO)C[C@H](C)[C@H](CN(C)S(=O)(=O)c1ccc(C)cc1)O2`, the relative growth is inactive: 1.04.

As for `COc1ccc(NC(=O)Nc2ccc3c(c2)C(=O)N([C@H](C)CO)C[C@@H](C)[C@@H](CN(C)S(C)(=O)=O)O3)cc1`, the relative growth was inactive: 0.935.

Consider `NC[C@@H]1O[C@H](O[C@H]2[C@@H](O)[C@H](O[C@@H]3[C@@H](O)[C@H](N)C[C@H](N)[C@H]3O[C@@H]3O[C@H](CO)[C@@H](O)C[C@H]3N)O[C@@H]2CO)[C@H](N)[C@@H](O)[C@@H]1O[C@H]1O[C@H](CO)[C@@H](O)[C@H](O)[C@@H]1O`, for which the relative growth is inactive: 1.01. Consider `O=C(C[C@H]1CC[C@@H]2[C@H](COC[C@H](O)CN2C(=O)Nc2cccc(F)c2)O1)NCc1ccccc1Cl`, for which the relative growth was inactive: 1. The value for `C[C@H](CO)N1C[C@H](C)[C@@H](CN(C)C(=O)C2CCCCC2)OCCCC[C@H](C)Oc2ccc(NC(=O)c3ccncc3)cc2C1=O` was inactive: 1.

As to `CN1CCCC1c1cccnc1.O=C(O)C(O)C(O)C(=O)O.O=C(O)C(O)C(O)C(=O)O` (stereo not drawn), the relative growth was inactive: 1.14.

As to `C[C@]1(C(=O)NCCN2CCOCC2)c2ccccc2C(=O)N(Cc2cc(C(F)(F)F)cc(C(F)(F)F)c2)[C@H]1c1ccc(CO)cc1`, the relative growth was inactive: 0.982. `C[C@@H]1CN([C@H](C)CO)C(=O)Cc2cc(NS(=O)(=O)c3cccs3)ccc2O[C@@H]1CN(C)CC1CC1`: the relative growth is inactive: 0.995. Consider `C[C@@H]1CCCCO[C@@H](CN(C)Cc2ccccc2)[C@H](C)CN([C@H](C)CO)C(=O)c2cc(NS(=O)(=O)c3ccccc3)ccc2O1`, for which the relative growth is inactive: 1.02. `O=C(C[C@H]1CC[C@@H]2[C@H](COC[C@@H](O)CN2C(=O)Nc2cc(Cl)cc(Cl)c2)O1)N1CCOCC1`: the relative growth is inactive: 1.01. As to `C[C@@H]1CN([C@@H](C)CO)C(=O)c2cc(NS(=O)(=O)c3ccc(F)cc3)ccc2O[C@@H]1CN(C)C(=O)Nc1ccc(C(F)(F)F)cc1`, the relative growth is inactive: 0.996.

Regarding `CO[C@H]1CN(C)C(=O)c2ccc(NC(=O)Nc3cccc(F)c3)cc2OC[C@H](C)N(C(=O)Nc2c(C)noc2C)C[C@@H]1C`, the relative growth was inactive: 0.984. Under `O=C1C(=O)C(O)C(=O)C(=O)C1O` (stereo not drawn) stands inactive: 1; under `CN(C)CCNc1ccc(CN)cc1`, inactive: 1.01; under `C[C@@H]1CN([C@@H](C)CO)S(=O)(=O)c2ccc(-c3ccncc3)cc2O[C@H]1CN(C)C(=O)c1ccc2c(c1)OCO2`, inactive: 1.01. Under `C[C@H](CO)N1C[C@H](C)[C@H](CN(C)S(C)(=O)=O)Oc2c(NS(=O)(=O)c3ccccc3)cccc2C1=O` stands inactive: 0.985; under `COc1ccc([Si](C)(C)[C@@H]2[C@@H](CCO)O[C@]3(C(=O)N(Cc4ccc(N5C(=O)c6cccc7cccc5c67)cc4)c4ccccc43)[C@H]2C)cc1`, inactive: 1.06.
